For 116 molecules, z-score results are on record in PubChem BioAssay AID488969 (Vanderbilt High Throughput Screening Facility, 2010).

Over roughly 110,000 compounds, “z-score” has its median near -0.1; the highest 2% begin near 2. This is one part of the list. Calls of active or inactive are those of the source.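 The calls were made as follows: active = z-score in the third read window above 3 or below -3; inactive = the rest.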

In the assay the target is Metabotropic glutamate receptor 8 (Rattus norvegicus) (UniProt P70579). Kind of assay: rat mGluR8 modulators via GIRK flux, primary screen, cell-based, thallium flux, HTS (AID 488969). Particulars: HEK293 rat mGluR8, GIRK (G protein-gated inwardly rectifying potassium channel) thallium flux, FluoZin2; at 10 µM; stronger effect = higher value; submaximal glutamate (EC20) added with thallium.
Chain of UniProt P70579 (P70579 whole entry, looked up): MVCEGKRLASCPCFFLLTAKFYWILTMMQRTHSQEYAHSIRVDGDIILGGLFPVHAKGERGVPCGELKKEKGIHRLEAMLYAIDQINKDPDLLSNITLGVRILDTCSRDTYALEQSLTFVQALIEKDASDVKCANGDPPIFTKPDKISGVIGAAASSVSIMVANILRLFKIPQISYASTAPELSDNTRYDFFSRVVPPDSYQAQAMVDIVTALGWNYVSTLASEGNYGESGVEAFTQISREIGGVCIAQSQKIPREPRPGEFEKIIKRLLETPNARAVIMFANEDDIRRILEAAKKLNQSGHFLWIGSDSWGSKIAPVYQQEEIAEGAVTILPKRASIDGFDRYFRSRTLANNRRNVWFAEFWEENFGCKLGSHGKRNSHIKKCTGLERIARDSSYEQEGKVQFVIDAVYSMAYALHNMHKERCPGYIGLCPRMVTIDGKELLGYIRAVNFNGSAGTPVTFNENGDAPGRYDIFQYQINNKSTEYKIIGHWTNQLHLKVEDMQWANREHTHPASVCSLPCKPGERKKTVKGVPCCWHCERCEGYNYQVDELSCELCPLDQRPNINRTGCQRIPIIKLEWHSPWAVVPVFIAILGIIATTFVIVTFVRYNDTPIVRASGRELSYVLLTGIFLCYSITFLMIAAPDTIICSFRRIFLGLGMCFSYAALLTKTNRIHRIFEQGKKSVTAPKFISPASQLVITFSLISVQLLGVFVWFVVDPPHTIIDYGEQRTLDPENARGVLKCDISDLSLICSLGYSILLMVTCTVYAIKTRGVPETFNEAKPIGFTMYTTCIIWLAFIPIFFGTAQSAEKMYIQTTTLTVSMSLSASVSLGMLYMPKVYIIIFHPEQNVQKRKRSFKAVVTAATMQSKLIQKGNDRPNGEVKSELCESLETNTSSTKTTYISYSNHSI
On to `O=C(CCC(=O)c1ccc(F)cc1)OC1CCOC1=O` (stereo unspecified), for which the z-score is -0.0455. Consider `COCc1cc(C)nc(N2CCc3ccccc32)c1C#N`, for which the z-score was -0.0247. The molecule `CCOC(=O)CC1=CSC2=NS(=O)(=O)CCN12` gave a z-score of -0.784. Molecule `CCOc1ccc(OCc2ccc(C(=O)NCC3CCCO3)o2)cc1` (stereo unspecified) yielded a z-score of -0.557. With `CC(CN1CCOCC1)OC(=O)c1ccccc1Br` (stereo unspecified), the z-score was -0.369. Molecule `O=C(O)c1ccc(/C=N/NC(=O)c2cc(-c3cccs3)nc3ccccc23)cc1` returned a z-score of -0.177. The same measure for `Cc1cc(OCC(=O)Nc2ccc(S(=O)(=O)N3CCN(C)CC3)cc2)cc(C)c1Cl`: 0.455; for `COc1ccccc1CNC(=O)CCCOc1cc(=O)n(C)c2ccccc12`: -0.13. `c1cc2c(cc1Oc1nc(N3CCOCC3)nc(N3CCOCC3)n1)OCO2` displayed a z-score of -0.154. `Cc1cccc2sc(N(CCCN(C)C)C(=O)c3cc4ccccc4oc3=O)nc12`: the z-score came to 0.344. The molecule `CCOC(=O)N/N=C/c1ccc(N2CCOCC2)s1` registered a z-score of -0.261.

In turn, `COc1cc(OC)nc(NC(=O)CS(=O)(=O)c2ccccc2)n1` came in with a z-score of -0.906. The figure for `COc1ccc(C(C)=O)cc1CN1C(=O)NC2(CCCCC2C)C1=O` (stereo unspecified) is 0.176.

On to `O=C(COC(=O)c1ccc(CSc2ccc(Cl)cc2)cc1)Nc1ccccc1`, for which the z-score is -0.179. Molecule `c1ccc(-c2ccc(-c3cnc4n3CCCCC4)cc2)cc1` gave a z-score of 0.704. The same measure for `C=C(C)C1CC=C(CN2CCC(O)CC2)CC1` (stereo unspecified): 0.257.

As to `COc1cc(SC)ccc1C(=O)NCc1ccc(C)cc1`, the z-score is -0.6. In the case of `Cn1cccc1/C=C1\SC(=O)N(c2ccccc2)C1=O`, the z-score is -0.564. The figure for `O=C1CC(c2cccc([N+](=O)[O-])c2)c2ccc3ccccc3c2N1` (stereo unspecified) is -0.494.

As to `COc1cccc(C(=O)Nc2ccc(NC(=O)c3ccco3)nc2)c1`, the z-score amounted to 0.861. `Cc1nc2ncnn2c(N2CCC(C(=O)NCC3CCCO3)CC2)c1Cc1ccccc1` (stereo unspecified) showed a z-score of 0.813. `O=C(O)c1cc2nc3c(c(C(F)(F)F)n2n1)CCc1ccccc1-3` came in with a z-score of 1.97. Molecule `Cn1nnnc1SCC(=O)c1cccs1` returned a z-score of 0.759. As to `COc1cc(/C=C(\NC(C)=O)C(=O)Nc2cccc(O)c2)ccc1OC(C)=O`, the z-score was -0.211. Molecule `COc1ccc(C(=O)N2CCC(C(=O)Nc3cccc(C)c3)CC2)cc1OC` came in with a z-score of -0.234. As for `COc1ccc(NC(=O)Nc2cccc(OC)c2)cc1`, the z-score was found to be 0.279. For the molecule `O=C(NC(=S)Nc1nc2ccccc2s1)c1cccs1`, the z-score was active: 11.7. Consider `O=C(Nc1cccnc1)c1ccccc1-c1nc(-c2ccccc2F)no1`, for which the z-score is -0.626. Turning to `COc1cccc(/C=N/c2sc(Cc3ccccc3)c(C)c2C(N)=O)c1O`, the z-score was -0.714. `Fc1ccc(Nc2ccnc(Nc3ccc(F)cc3)n2)cc1`: the z-score amounted to 0.105. `CCCCCCCCCC(=O)N/N=C(\C)c1cccnc1`: the z-score was -0.69.

With `CCOc1ccccc1OCCCC(=O)Nc1sccc1C(N)=O`, the z-score worked out at 0.813. Take `COC(=O)c1ccc2c(c1)C(=O)N(C1CCCCC1)C2=O`: the z-score turned out to be 0.304.

On to `Cc1csc(NC(=O)CSc2nnc3c4ccccc4nc(C(C)(C)C)n23)n1`, for which the z-score was 0.904. As to `O=C(Nc1ccc(-n2cnnn2)cc1)C1CCCCC1`, the z-score was -0.644. Consider `Cc1cccc(-n2c(C)n[nH]c2=S)c1C`, for which the z-score is -0.0967. For the molecule `CCCCCCn1c(COc2ccccc2F)nnc1SCC(=O)N1c2ccccc2NC(=O)C1(C)C`, the z-score is -0.0453. In the case of `COCCCNC(=S)Nc1ccc(CC(=O)O)cc1`, the z-score was -0.00852. For `Cc1ccc(C(=O)CSc2nc(C)cc(=O)[nH]2)cc1`, the z-score was -0.183. Take `Cc1cc(C)nc(N/N=C/c2ccccc2OCc2cccc(Br)c2)n1`: the z-score was -0.027.

In turn, `CC(C)(C)c1csc(NC(=O)c2cccs2)n1` displayed a z-score of -0.739. The same measure for `COc1ccc(/C(N)=N/OC(=O)c2cccc([N+](=O)[O-])c2)cc1`: -0.162; for `Cc1cc2n(n1)C(c1sccc1C)Nc1ccccc1-2` (stereo unspecified): -1.74.

`OC1(c2ccccc2)CCN(Cc2ccccc2)C2CCCCC21` (stereo unspecified): the z-score worked out at 0.483. `CCN(CCNC(=O)C1CCCN(S(=O)(=O)c2cnc[nH]2)C1)c1ccccc1` (stereo unspecified) showed a z-score of -0.161. `COCCNC(=O)C(C)OC(=O)c1cc2sccc2n1C` (stereo unspecified) gave a z-score of 0.0756. As to `CC(=O)/C(=N\Nc1ccccc1)Sc1nncn1C`, the z-score is -0.337. `Nc1ccc2nc(-c3cccnc3)[nH]c2c1`: the z-score was -0.156. On to `CCOC(=O)N1CCN(C(=O)Cc2cccs2)CC1`, for which the z-score is -1.64.

For `O=C(OCc1cccc2ccccc12)C1CC(=O)N(c2ccccc2)C1` (stereo unspecified), the z-score is 0.0322. For `COc1ccc(-n2nnnc2SCC(=O)N2CCOCC2)cc1`, the z-score is active: 3.28. Regarding `CCCC(=O)c1ccc(N2CCN(S(=O)(=O)c3ccc(C)cc3)CC2)c(F)c1`, the z-score is -0.45. As to `Cn1c(CN2CCCCC2)nc2cc(NC(=O)c3cccc(Br)c3)ccc21`, the z-score is -0.283. As for `COc1ccc(CCNC(=O)C(=O)NCCOc2ccccc2)cc1OC`, the z-score is -0.451.

`CCOc1cc(/C=C(\C#N)c2[nH]nc(N)c2C#N)ccc1O` showed a z-score of -1.75. Regarding `COc1cccc(NC(=O)Nc2ccc3c(c2)nnn3C)c1`, the z-score is -0.0198. In turn, `Cc1cccc2c(=O)oc(-c3ccc4c(c3)C(=O)N(CC3CCCO3)C4=O)nc12` (stereo unspecified) showed a z-score of 0.679. The figure for `Cn1c(=O)n(C)c2cc(/C=N/NC(=O)c3ccc(Cl)cc3Cl)ccc21` is -0.00337. `CC(C)(C)C(=O)c1cn(CC(=O)NCc2ccc3c(c2)OCO3)c2ccccc12` gave a z-score of -0.846. The molecule `CCCCCN1CSC(=S)N(Cc2ccccc2)C1` returned a z-score of 0.119.

In turn, `Cc1ccc(C2C3=C(CC(C)(C)CC3=O)Nc3n[nH]c(C)c32)cc1` (stereo unspecified) displayed a z-score of -2.16.

Regarding `COc1ccc(OC)c(S(=O)(=O)N2CCC(C(=O)NCCc3ccccc3)CC2)c1`, the z-score is -0.277. The molecule `Cc1ccc(NC(=O)Nc2ccc(Cl)cc2)c(Br)c1` yielded a z-score of -0.158.

In the case of `CCCCCCCN1N=C(C)C(C(=O)c2ccccc2)C1=O` (stereo unspecified), the z-score was found to be 0.706. The molecule `Cc1ccc(C(=C2C3C=CC2C2C(=O)NC(=O)C32)c2ccc(C)cc2)cc1` (stereo unspecified) registered a z-score of 0.145. `CC1CC(Nc2cccc(O)c2)=CC(=O)O1` (stereo unspecified) displayed a z-score of -0.0768. The same measure for `O=C(NCCCn1ccnc1)c1ccncc1`: 0.28; for `Cc1ccc(C)c(OCC(=O)Nc2c[nH]c(=O)[nH]c2=O)c1`: -0.385. `Cc1c(/C=N/n2cnnc2)c2ccccc2n1CCOc1ccc(Cl)cc1` registered a z-score of 1.24. Regarding `COc1ccc(NC(=O)CSc2c3c(nc4cc(Cl)ccc24)CCCC3)cc1OC`, the z-score was -0.431. The molecule `CC1=C/C(=N\OS(=O)(=O)c2ccccc2)C(C)=CC1=O` returned a z-score of -0.189. With `Cc1ccc2cccc(Oc3nnnn3-c3ccccc3)c2n1`, the z-score is -1.1.

Regarding `CC(C)NC(=O)CCCc1ccccc1`, the z-score was determined as 0.16. As to `CCn1c(=O)cc(OCC(=O)O)c2ccccc21`, the z-score was -0.648.

`CCOC(=O)c1sc2nc(N3CCOCC3)c3c(c2c1N)CCN(Cc1ccccc1)C3` displayed a z-score of -0.00385.

As to `COc1ccc(CCNC(=O)c2cnn3cccnc23)cc1OC`, the z-score was found to be 0.347. For the molecule `COc1ccc(N(CC(=O)NC2CCCCC2)C(=O)CNC(=O)c2ccco2)c(OC)c1`, the z-score came to 0.0458. The same measure for `CN(C)c1nc(N)nc(CSc2ccccn2)n1`: -0.0325; for `O=C(Nc1nnc(CCN2CCOCC2)s1)C1CCCCC1`: 0.399. The same measure for `N#CC(C#N)=Cc1cn(-c2ncc(C(F)(F)F)cc2Cl)c2ccccc12`: -0.121; for `Cc1nc2ccc(S(=O)(=O)NC(C(=O)N3CCC(C)CC3)C(C)C)cc2s1` (stereo unspecified): -0.133. In the case of `CC1CCC2C(C1)c1sc(=O)[nH]c1SC2(C)C` (stereo unspecified), the z-score was -0.236.

On to `CCOc1ccc(OCCCCNCCN)cc1`, for which the z-score was 0.0466. `Cc1cccc(C(=O)Nc2cccc(-c3cnc4ccccc4n3)c2)c1` showed a z-score of -0.165. In turn, `Cc1ccc(NC(=O)CN2CCC3(O)CCCCC3C2c2ccc3c(c2)OCO3)c(C)c1` (stereo unspecified) gave a z-score of -0.00759. In turn, `COc1ccc(N2C(=O)CC(Sc3ncccc3C(=O)O)C2=O)cc1` (stereo unspecified) came in with a z-score of -0.341.

In the case of `CCN(CC(=O)Nc1ccc2c(c1)OCCO2)Cc1cc(=O)oc2cc(C)c(C)cc12`, the z-score was -0.025. For the molecule `O=C(Nc1cc(Sc2ccccn2)cc([N+](=O)[O-])c1)c1ccc([N+](=O)[O-])cc1`, the z-score is -0.0668.

As for `COc1cccc(CC(NC(C)=O)C(=O)NC2CCN(c3c4c(nc5ncnn35)CCC4)CC2)c1` (stereo unspecified), the z-score is 0.172. `O=C(Nc1ccccc1F)c1ccco1` registered a z-score of 0.262. The figure for `O=C(C1CCCN(Cc2cccs2)C1)N1CCCCCC1` (stereo unspecified) is active: 3.36; for `Cc1ccc(C(=O)Cn2c(N3CCOCC3)nc3c2c(=O)n(C)c(=O)n3C)cc1` it is -0.383. The molecule `COc1cc(C(=O)N2CCC(O)(c3ccccc3)CC2)cc(OC)c1OC` came in with a z-score of -0.228. `Cc1ccc(-n2c(C)cc(/C=N/NC(=O)c3ccncc3)c2C)cc1` displayed a z-score of -0.0402. The molecule `Cc1cc(C=O)c(C)n1-c1ccc(N2CCOCC2)cc1` gave a z-score of -0.0678.

With `CC(C)(C)CC(C)(C)c1ccc(O)c(CN2CCN(CCC#N)CC2)c1`, the z-score was -0.108. In the case of `O=C1c2ccccc2C(=O)N1c1ccc(Cl)cc1`, the z-score was 0.445.

The molecule `COC(=O)c1ccc(NS(=O)(=O)c2cccc3cccnc23)cc1` registered a z-score of 0.0976. Regarding `O=C(Nc1nnc(SCC(=O)N2CCCc3ccccc32)s1)c1ccc2ccccc2c1`, the z-score amounted to 0.456. The figure for `Cn1cc2c(=O)n(/N=C/c3ccccc3)cnc2n1` is 0.198. For the molecule `COc1ccc(/C=C2/CCOC2=O)cc1`, the z-score was -0.233. The figure for `CCCCN(CC)C(=O)/C=C/c1cccc([N+](=O)[O-])c1` is -0.405; for `Fc1cccc2sc(Nc3nnc(-c4ccco4)o3)nc12` it is active: 16. Molecule `CN(c1ccccc1C(=O)Nc1cccc([N+](=O)[O-])c1)S(C)(=O)=O` had a z-score of -0.567. The same measure for `Cc1cccc(C)c1OCC(O)CN1CCC(CN2C(=O)c3cccc4cccc(c34)C2=O)CC1` (stereo unspecified): 2.99; for `O=C(Nc1ccc2c(c1)CCC2)c1cc2ccccc2o1`: 1.94; for `CN1c2ccccc2C2(C)CCCC3=Cc4cccc([N+](=O)[O-])c4OC312` (stereo unspecified): -0.263. Consider `Cc1ccc2nc(NC(=O)Cc3cccs3)sc2c1`, for which the z-score amounted to 0.542.

In the case of `Nc1ccc(Oc2ccc(Br)cc2)cc1`, the z-score was -0.138. The figure for `COc1ccc(/C(=N/O)C(C)(C)NO)cc1` is -0.376; for `CCOC(=O)c1ccc(NC(=O)CSc2nnc(C3CCCCC3)n2C)cc1` it is -0.185; for `Nc1ncc(Br)cc1N=Cc1ccccc1` it is -0.0897.

`COc1ccc(NC(=S)Nc2ccc(OCc3ccccc3)cc2)c(OC)c1` registered a z-score of -0.139. With `CCC(Oc1ccccc1)C(=O)Nc1ccc(S(=O)(=O)Nc2cnc3ccccc3n2)cc1` (stereo unspecified), the z-score is -0.155. With `CC(=O)Nc1ccc2c(c1)nc1n2CCOC1`, the z-score is 0.059. The figure for `O=C(CSc1nnc(-c2ccccc2)n1Cc1ccco1)NCc1ccc2c(c1)OCO2` is -0.695.
